PubChem BioAssay (NCI)
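Test compounds were applied to cells in 96-well plates for 48 hours at 5 doses. At the GI50, growth is halved.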 Not every entry of the source has a single result; some have several. They are shown here; other results are not. The source may hold further records. A record mostly stands for its own series of concentrations, which the source does not state; a value can be the end of its range.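 TGI denotes the concentration required for complete inhibition of growth.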

Columns and labels:
Assay in all cases: inhibition of tumour cell growth, NCI panel, 48 h
[1] = tested on: SW-620 colon
[2] = tested on: HOP-62 NSCLC
[3] = tested on: SF-268 CNS
[4] = tested on: K-562 leukemia
[5] = tested on: SF-295 CNS
[6] = tested on: NCI-H522 lung
[7] = tested on: NCI-H23 lung
[8] = tested on: SNB-78 CNS
[9] = tested on: UACC-257 melanoma
[10] = tested on: XF 498 CNS
[11] = tested on: SK-MEL-28 melanoma
[12] = tested on: SK-OV-3 ovarian
[13] = tested on: SK-MEL-2 melanoma
[14] = tested on: A498 renal
[15] = tested on: EKVX NSCLC
[16] = tested on: IGROV1 ovarian
[17] = tested on: HCC-2998 colon
[18] = tested on: M19-MEL melanoma
[19] = tested on: SN12C renal
[20] = tested on: A549 NSCLC
[21] = tested on: SNB-75 CNS
[22] = tested on: KM12 colon
[23] = tested on: OVCAR-4 ovarian
[24] = tested on: COLO 205 colon
[25] = tested on: KM20L2 colon
[26] = tested on: DMS 273 small cell lung
[27] = tested on: UACC-62 melanoma
[28] = tested on: NCI/ADR-RES ovarian
[29] = tested on: MCF7 breast
[30] = tested on: DLD-1 colon
[31] = tested on: HOP-92 NSCLC
[32] = tested on: LOX IMVI melanoma
[33] = tested on: RPMI-8226 leukemia
[34] = tested on: DMS 114 small cell lung
[35] = tested on: NCI-H460 lung
[36] = tested on: OVCAR-8 ovarian
[37] = tested on: HL-60(TB) leukemia
[38] = tested on: RXF 393 renal
[39] = tested on: OVCAR-5 ovarian
[40] = tested on: SN12K1 renal
[41] = tested on: SK-MEL-5 melanoma
[42] = tested on: OVCAR-3 ovarian
[43] = tested on: U251 CNS
[44] = tested on: CCRF-CEM leukemia
[45] = tested on: HCT-15 colon
[46] = tested on: HT29 colon
[47] = tested on: M14 melanoma
[48] = tested on: MDA-MB-231 breast
[49] = tested on: SR leukemia
[50] = tested on: DU-145 prostate
[51] = tested on: HS 578T breast
[52] = tested on: MOLT-4 leukemia
[53] = tested on: HCT-116 colon
[54] = tested on: CAKI-1 renal

C[C@@H]1O[C@@H](O[C@H]2CC[C@]3(C=O)[C@H]4CC[C@]5(C)[C@@H](c6ccc(=O)oc6)CC[C@]5(O)[C@@H]4CC[C@]3(O)C2)[C@H](O)[C@H](O)[C@H]1O[C@@H]1O[C@H](CO)[C@@H](O)[C@H](O)[C@H]1O
TGI [1]: 3.75, 83.6, 84.7, 37.8 nM | TGI [2]: 0.375, 30, 21.4, 37.6 nM | TGI [3]: 0.000989, 26.6, 20.6, 37.6 nM | GI50 [4]: 0.00149 nM [1 test] and 37.5 nM [mean of 3 tests] | TGI [4]: 0.635 nM, 136 nM, 66.7 nM | TGI [5]: 0.337, 50.2, 25.3, 42 nM | TGI [6]: 0.0235 nM, 11.2 nM, 12 nM | TGI [7]: 0.0009 nM and 14.2 nM | GI50 [8]: < 0.000375 nM [1 test] and 12.4 nM [mean of 5 tests] | TGI [8]: 2.06 nM, 189 nM, 47.9 nM | TGI [9]: 1.37, 58.2, 42.4, 667 nM | GI50 [10]: 0.0215 nM [1 test] and 6.38 nM [mean of 4 tests] | TGI [10]: 0.121 nM, 11.5 nM, 42.6 nM | TGI [11]: 3.75, 165, 87.5, 94.8 nM | GI50 [12]: 0.0113 nM [1 test] and 37.5 nM [mean of 5 tests] | TGI [12]: 2.01 nM, 55.3 nM, 37.7 nM | TGI [13]: 0.312, 49.2, 46.8, 49.9 nM | GI50 [14]: 0.0177 nM [1 test] and 37.5 nM [mean of 4 tests] | TGI [14]: 0.269 nM, 141 nM, 48 nM | TGI [15]: 0.00865 nM, 29.3 nM, 31.5 nM | GI50 [16]: 0.00603 nM [1 test] and 37.5 nM [mean of 5 tests] | TGI [16]: 0.375 nM, 142 nM, 462 nM | TGI [17]: 0.628, 135, 47.4, 52.4 nM | GI50 [18]: 0.00752 nM [1 test] and 32.8 nM [mean of 5 tests] | TGI [18]: 3.75 nM, 120 nM, 47.4 nM | TGI [19]: 3.75, 51.7, 31.4, 63.1 nM | TGI [20]: 0.000975 nM, 17.6 nM [1 test] and 14.3 nM [mean of 6 tests] | TGI [21]: 0.74, 60.8, 78.4, 47.7 nM | TGI [22]: 0.456, 107, 133, 65.7 nM | TGI [23]: 0.00115 nM, 21 nM, 16.8 nM | TGI [24]: 3.75 nM, 68.1 nM, 65.9 nM | GI50 [25]: 0.00147 nM [1 test] and 37.5 nM [mean of 5 tests] | TGI [25]: 3.75 nM, 86.4 nM, 48.6 nM | GI50 [26]: 0.000377 nM [1 test] and 37.5 nM [mean of 4 tests] | TGI [26]: 0.245 nM, 25.6 nM, 39.7 nM | TGI [27]: 3.75, 63.8, 41, 39 nM | TGI [28]: 0.00269, 56.6, 43.7, 47.5 nM | TGI [29]: 0.982, 94, 92.1, 69.7 nM | GI50 [30]: 0.000853 nM [1 test] and 11.9 nM [mean of 5 tests] | TGI [30]: 0.0992 nM [1 test] and 40.7 nM [mean of 5 tests] | TGI [31]: 0.494, 128, 79.8, 52.3 nM | TGI [32]: 0.28, 45.7, 30.9, 242 nM | TGI [33]: 0.208, 88.6, 71.9, 68.1 nM | TGI [34]: 0.461 nM and 13.3 nM | TGI [35]: 0.0387 nM, 29.5 nM, 24.2 nM | TGI [36]: 0.765, 60.7, 40, 40.3 nM | TGI [37]: 0.00108 nM, 18.2 nM, 67.4 nM | TGI [38]: 0.000658 nM, 31.8 nM [1 test] and 37.2 nM [mean of 3 tests] | TGI [39]: 1.18, 23.3, 78, 86.6 nM | GI50 [40]: 0.00231 nM [1 test] and 22.8 nM [mean of 5 tests] | TGI [40]: 0.133 nM, 71.6 nM, 39.2 nM | TGI [41]: 0.138 nM, 25.8 nM, 55.8 nM | TGI [42]: 0.00157, 14.7, 55.8, 37.6 nM | TGI [43]: 3.75, 78.8, 66.4, 43.4 nM | TGI [44]: 0.0568 nM, 37.4 nM, 38 nM | TGI [45]: 0.697, 50.3, 68.3, 60.7 nM | TGI [46]: 3.75, 78.3, 61.5, 675 nM

C=C1CC2CC[C@@]34CC5O[C@@H]6C(O[C@H]7CC[C@H](CC(=O)OC8C(C)C9OC%10C[C@]%11(C[C@@H]%12O[C@]%13(CC(C)[C@@H]%14O[C@H](C(O)CC(O)CO)C[C@@H]%14O%13)CC(C)[C@@H]%12O%11)OC%10CC9O[C@H]8C[C@H]8OC(CC[C@@H]1O2)C[C@@H](C)C8=C)OC7[C@@H]6O3)[C@H]5O4 (stereo partly drawn)
TGI [2]: 9.66 nM and 2.55 µM | TGI [47]: 9.98 nM and 1.96 µM | TGI [4]: 9.69 nM, 2.55 µM, 8.62 µM | TGI [48]: 13.5 nM and 159 nM | TGI [5]: 3.16 nM, 2 nM, 35.4 nM, 1.79 µM | TGI [7]: 3.25 nM, 46.4 nM, 2.84 µM | TGI [12]: 7.56 nM, 19.3 nM, 579 nM, 987 nM, 2.14 µM | TGI [49]: 9.19 nM and 3.57 µM | TGI [16]: 21.4 nM, 2.55 µM, 1.12 µM | TGI [17]: 8.12 nM, 3.65 nM, 11.7 nM, 6.5 µM | TGI [50]: 4.75 nM, 126 nM, 15.3 µM | TGI [21]: 3.85 nM and 1.43 µM | TGI [22]: 6.33, 11.9, 26.8, 631 nM | TGI [51]: 2.85 µM [1 test] and 46.4 nM [mean of 3 tests] | TGI [24]: 5.14 nM, 2.21 nM, 0.215 nM, 1.26 µM | TGI [27]: 0.668 nM, 2.55 µM, 1.87 µM | TGI [28]: 28 nM, 94.3 nM, 8.08 nM, > 100 µM | TGI [31]: 4.67 nM and 2.55 µM | TGI [32]: 12.5 nM, 629 nM, 1.49 µM [1 test] and 570 nM [mean of 4 tests] | TGI [33]: 13.8 nM, 2.55 µM, 1.88 µM | TGI [35]: 4.18 nM, 1.2 µM [1 test] and 192 nM [mean of 4 tests] | TGI [36]: 11 nM, 43.3 nM, 2.09 µM [1 test] and 43.1 nM [mean of 4 tests] | TGI [37]: 0.842 nM and 2.55 µM | TGI [38]: 5.54 nM and 1.91 µM | TGI [41]: 5.07 nM, 0.619 nM, 27.4 nM | TGI [42]: 1.74 nM, 0.597 nM, 84.6 nM, 3.59 µM | TGI [43]: 27.1 nM, 1.05 µM [1 test] and 581 nM [mean of 4 tests] | TGI [44]: 9.24 nM, 2.55 µM, 1.6 µM | TGI [45]: 56.4 nM, 2.55 µM, 12.5 µM | TGI [46]: 6.78 nM, 2.44 nM, 36.8 nM, 1.56 µM | TGI [52]: 70.1 nM and 1.29 µM | TGI [53]: 12 nM, 3.09 nM, 1.44 µM [1 test] and 735 nM [mean of 4 tests]

CC(C)(O)/C=C/C(=O)[C@](C)(O)[C@H]1[C@H](O)C[C@@]2(C)[C@@H]3CC=C4[C@@H](C[C@H](O)C(=O)C4(C)C)[C@]3(C)C(=O)C[C@]12C
TGI [21]: 176 nM and 1.84 µM | TGI [23]: 661 nM [mean of 3 tests] and 11.5 µM [mean of 4 tests] | TGI [24]: 436 nM and 27.4 µM | TGI [25]: 435 nM and 20.8 µM | TGI [54]: 316 nM and 5.01 µM | TGI [39]: 953 nM and 22.5 µM | TGI [45]: 966 nM [mean of 3 tests] and 27.7 µM [mean of 4 tests] | TGI [53]: 706 nM and 8.81 µM

CC1=C2C(=CC(C)(C)[C@@H]2O)C(=O)[C@](C)(O)C12CC2
TGI [48]: 20.5 nM [1 test] and 368 nM [mean of 4 tests] | GI50 [33]: 1.51 µM [1 test] and 71.4 nM [mean of 4 tests] | TGI [33]: 6.8 µM [1 test] and 647 nM [mean of 4 tests] | TGI [43]: 124 nM and 10.4 µM | TGI [44]: 131 nM and 2.57 µM | TGI [45]: 29.9 nM and 1.09 µM
